Out of some 310,000 compounds screened, about 14,000 (4.5%) showed an effect of 50% or more. The effect is printed as a negative number. This is one part of the list. Where a SMILES comes first, the peptide text is derived from it. [ ]: non-standard residue; d: D form. pGlu = O=C1CC[CH](C(=O)O)N1
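Also: peak tail current of the secondary pulse compared with the same well before compound.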

For this experiment, the target named is human ether-à-go-go-related gene (hERG) potassium channel (human, UniProt Q12809). In words: primary screen, population patch clamp on CHO cells stably expressing hERG.
Sequence of human ether-à-go-go-related gene (hERG) potassium channel (Q12809 whole entry, looked up): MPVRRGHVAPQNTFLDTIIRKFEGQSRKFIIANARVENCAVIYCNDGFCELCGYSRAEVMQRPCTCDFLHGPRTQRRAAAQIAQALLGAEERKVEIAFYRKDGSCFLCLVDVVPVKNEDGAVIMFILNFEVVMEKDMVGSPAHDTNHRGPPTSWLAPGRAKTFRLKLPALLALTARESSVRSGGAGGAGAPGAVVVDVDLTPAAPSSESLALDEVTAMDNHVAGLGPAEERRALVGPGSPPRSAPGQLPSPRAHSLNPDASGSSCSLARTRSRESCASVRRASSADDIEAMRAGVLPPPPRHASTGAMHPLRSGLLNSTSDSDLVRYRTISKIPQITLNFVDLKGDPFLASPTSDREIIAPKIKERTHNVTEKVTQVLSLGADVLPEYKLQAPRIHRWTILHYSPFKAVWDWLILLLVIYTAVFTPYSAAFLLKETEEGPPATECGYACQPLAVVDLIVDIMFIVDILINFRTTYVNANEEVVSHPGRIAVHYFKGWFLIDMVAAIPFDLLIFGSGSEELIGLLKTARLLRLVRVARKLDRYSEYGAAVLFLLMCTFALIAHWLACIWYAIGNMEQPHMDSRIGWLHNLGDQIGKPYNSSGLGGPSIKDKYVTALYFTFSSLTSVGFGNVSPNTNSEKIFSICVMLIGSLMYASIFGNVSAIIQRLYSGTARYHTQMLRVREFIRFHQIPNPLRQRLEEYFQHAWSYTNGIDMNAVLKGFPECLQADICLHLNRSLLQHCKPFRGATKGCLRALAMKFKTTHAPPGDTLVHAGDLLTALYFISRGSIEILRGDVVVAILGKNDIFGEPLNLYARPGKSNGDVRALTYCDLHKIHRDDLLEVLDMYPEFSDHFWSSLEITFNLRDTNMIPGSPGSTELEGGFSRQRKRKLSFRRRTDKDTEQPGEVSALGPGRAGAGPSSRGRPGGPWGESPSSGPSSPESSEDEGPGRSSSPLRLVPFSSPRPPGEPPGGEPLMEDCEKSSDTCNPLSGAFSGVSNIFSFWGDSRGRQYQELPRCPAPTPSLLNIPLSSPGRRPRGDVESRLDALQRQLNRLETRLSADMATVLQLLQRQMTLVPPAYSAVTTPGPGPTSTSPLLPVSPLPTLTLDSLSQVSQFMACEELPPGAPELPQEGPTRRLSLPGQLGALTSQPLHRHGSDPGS
With `O=C(Nc1ccccc1)C1CC(=O)N(Cc2ccccc2)C1` (stereo not drawn), the “hERG current change (%, negative = inhibition) at 10uM” value is given as 2.14%.
As for `CCN1CCN(c2nc3ccccc3nc2C(C#N)S(=O)(=O)c2ccc(C)cc2)CC1` (stereo not drawn), the “hERG current change (%, negative = inhibition) at 10uM” value is reported as -18.5%.
With `CN(Cc1nc(-c2ccccn2)no1)S(=O)(=O)c1ccccc1`, the “hERG current change (%, negative = inhibition) at 10uM” value came out at 11.4%.
On to `COc1ccc(-n2nnnc2SCC(=O)Nc2cc(OC)c([N+](=O)[O-])cc2C)cc1`, for which the “hERG current change (%, negative = inhibition) at 10uM” value came to 42.4%.
`CC(=O)Nc1nnc(SCC(=O)NCCOc2ccccc2)s1`: the “hERG current change (%, negative = inhibition) at 10uM” value stood at 4.18%.
For `Cc1ccc(N=C(N(C)C)P(=O)(N(C)C)N(C)C)cc1`, the “hERG current change (%, negative = inhibition) at 10uM” value is given as 17.4%.
The value for `Cc1cccc(NC(=O)c2ccc(S(=O)(=O)N3CCCCC3)cc2)n1` was -6.69%.
Regarding `COc1cccc(NC(=O)c2oc3ccc(S(=O)(=O)N4CCOCC4)cc3c2C)c1`, the “hERG current change (%, negative = inhibition) at 10uM” value was found to be 3.95%.
As to `CCOc1cc(C(=O)N2CCC(CC3CC(c4ccc(Cl)cc4)=NO3)(C(=O)NCC3CCCCC3)CC2)cc(OCC)c1OCC` (stereo not drawn), the “hERG current change (%, negative = inhibition) at 10uM” value amounted to 1.25%.
With `N/C(=N\c1nc2ccccc2o1)NC(=O)c1ccccc1`, the “hERG current change (%, negative = inhibition) at 10uM” value amounted to 10.5%.
With `CCC(=O)N1CCc2cc(Br)cc(S(=O)(=O)N3CCCCC3CC)c21` (stereo not drawn), the “hERG current change (%, negative = inhibition) at 10uM” value came out at 0.791%.
For the compound `Cc1cccc(OCC(=O)N(Cc2ccco2)C2CCS(=O)(=O)C2)c1` (stereo not drawn), the “hERG current change (%, negative = inhibition) at 10uM” value is listed as -25.3%.
The value for `Cc1ccccc1NC(=O)Cc1nc(COC(=O)CCc2ccccc2)cs1` was -4.83%; that for `COc1cccc(C(=O)Nc2cccc(S(=O)(=O)NC3=NCCC3)c2)c1` was 8.06%; that for `CCCCN(C(=O)c1cc2c(s1)CCCCC2)c1c(N)n(CCC)c(=O)[nH]c1=O` was 16%.
Regarding `Cc1cc(C)c(S(=O)(=O)N2CCOCC2)cc1NS(=O)(=O)c1cc(OCC(N)=O)c(C)cc1Cl`, the “hERG current change (%, negative = inhibition) at 10uM” value was found to be 6.6%.
`Cc1ccc(C2(c3noc(CN4C[C@@H](C)O[C@@H](C)C4)n3)CCCC2)cc1`: the “hERG current change (%, negative = inhibition) at 10uM” value is 14.3%.
The result for `O=C(NNC(=O)C1C2CCC(C2)C1C(=O)O)c1cccc(Cl)c1` (stereo not drawn) reads 3.82%.
Regarding `COC(=O)Cn1cc(/C=N/NC(=O)COc2cccc3cccnc23)c2ccccc21`, the “hERG current change (%, negative = inhibition) at 10uM” value was -17.6%.
Regarding `O=C(CCSc1nnc2ccccn12)Nc1ccc(F)cc1`, the “hERG current change (%, negative = inhibition) at 10uM” value is -8.83%.
Take `Cl.N=C(c1ccc([N+](=O)[O-])cc1)N1CCCCCC1`: the “hERG current change (%, negative = inhibition) at 10uM” value is reported as -8.91%.
As for `Cn1cc(CNC(=O)c2sc3cccc(Cl)c3c2Cl)cn1`, the “hERG current change (%, negative = inhibition) at 10uM” value is on record as -7.27%.
In the case of `O=C(CCCn1c(SCC(=O)c2ccc(F)cc2)nc2ccccc2c1=O)NCc1ccco1`, the “hERG current change (%, negative = inhibition) at 10uM” value was 5.7%.
In the case of `O=C(CS(=O)(=O)c1cn(CC(=O)N2CCOCC2)c2ccccc12)Nc1ccccc1F`, the “hERG current change (%, negative = inhibition) at 10uM” value is 0.801%.
As for `Cc1nn(C)cc1C(=O)c1ccccc1`, the “hERG current change (%, negative = inhibition) at 10uM” value is 15.8%.
For `COc1ccc2oc(C(=O)OCC(=O)/C(C#N)=C(\C)N)c(C)c2c1`, the “hERG current change (%, negative = inhibition) at 10uM” value is on record as 13.8%.
On to `CCOC(=O)c1sc(NC(=O)C2CC(=O)N(c3ccccc3OC)C2)nc1C` (stereo not drawn), for which the “hERG current change (%, negative = inhibition) at 10uM” value is -9.02%.
With `O=C(N/N=C/c1ccccc1)c1cc(-c2ccc3c(c2)OCO3)n[nH]1`, the “hERG current change (%, negative = inhibition) at 10uM” value worked out at 16%.
For the compound `COCCCN1C(=O)C(=O)/C(=C(/O)c2ccc3c(c2)OCCO3)C1c1ccc(C(=O)OC)cc1` (stereo not drawn), the “hERG current change (%, negative = inhibition) at 10uM” value was found to be 1.43%.
Regarding `C=CCn1c(SCC(=O)Nc2nc(C)cs2)nnc1C(CO)NC(=O)c1ccccc1` (stereo not drawn), the “hERG current change (%, negative = inhibition) at 10uM” value is on record as 2.67%.
Turning to `CC(C)CC(NC(=O)C(CO)NC(=O)C1CCC(=O)N1)C(N)=O` (stereo not drawn) ([pGlu]-Ser-Leu-NH2; configuration not given here), the “hERG current change (%, negative = inhibition) at 10uM” value was 18.5%.
Take `Br.CC1CCN(Cc2nnnn2-c2cccc([N+](=O)[O-])c2)CC1`: the “hERG current change (%, negative = inhibition) at 10uM” value is reported as -10.8%.
The result for `Cc1csc(Nc2ccccc2)n1` reads 14.5%; that for `Cc1nc(/C(N)=N/OC(=O)c2ccccc2Cl)c(C(F)(F)F)o1`, 5.8%; that for `CC(=O)OC(COc1ccccc1)Cn1cnc2cc(C)c(C)cc21.Cl` (stereo not drawn), 1.16%.
With `CCOC(=O)c1sc(NC(=O)CSCc2c(C)noc2C)nc1C`, the “hERG current change (%, negative = inhibition) at 10uM” value is given as -16.3%.
For `Cc1cccc(CSc2nnc(CCCCCNC(=O)OC(C)(C)C)o2)c1`, the “hERG current change (%, negative = inhibition) at 10uM” value is -13.3%.
For `O=C(OCC(=O)c1ccc[nH]1)c1ccccc1`, the “hERG current change (%, negative = inhibition) at 10uM” value came to 9.09%.
For `CCOC(=O)CSc1nc2c(sc(=S)n2-c2ccccc2OC)c(=O)n1-c1ccccc1OC`, the “hERG current change (%, negative = inhibition) at 10uM” value was determined as 7.71%.
Regarding `C=CCc1cc(Cl)ccc1OCCCNCCO.O=C(O)C(=O)O`, the “hERG current change (%, negative = inhibition) at 10uM” value is recorded as -27.1%.
For the compound `COc1ccc(OC)c(S(=O)(=O)n2nc(-c3ccccc3)cc2N)c1`, the “hERG current change (%, negative = inhibition) at 10uM” value is given as -7.94%.
In the case of `C=CCSc1nc2nc(C)cc(C)n2n1`, the “hERG current change (%, negative = inhibition) at 10uM” value amounted to 2.28%.
Regarding `NNc1nc2sc3c(c2c(=O)n1Cc1ccccc1)CCC3`, the “hERG current change (%, negative = inhibition) at 10uM” value was -4.1%.
`CC(C)C(=O)c1c(C(C)C)nn2ccccc12`: the “hERG current change (%, negative = inhibition) at 10uM” value is 5.59%.
As to `Clc1ccc(Cc2ccccc2)nn1`, the “hERG current change (%, negative = inhibition) at 10uM” value was 4.59%.
On to `CCOC(=O)c1ccc(Nc2cc3ccccc3c(=O)[nH]2)cc1`, for which the “hERG current change (%, negative = inhibition) at 10uM” value is given as 6.7%.
Regarding `CC(C)N(CCNC(=O)COc1ccc2oc3c(c2c1)CCCC3)C(C)C`, the “hERG current change (%, negative = inhibition) at 10uM” value was -73.3%.
The value for `Cc1cc2c(cc1C)CSC(c1c(O)ccc3ccccc13)SC2` was 32.3%.
Consider `O=C(CSc1ncccn1)c1ccccc1Br`, for which the “hERG current change (%, negative = inhibition) at 10uM” value is recorded as -14.4%.
Turning to `CCOC(=O)c1ccccc1NC(=O)c1cc(S(=O)(=O)N2CCOCC2)ccc1F`, the “hERG current change (%, negative = inhibition) at 10uM” value was -5.63%.
As to `CN(CC(=O)Nc1ccccc1Cl)C(=O)COC(=O)c1nc(Cl)ccc1Cl`, the “hERG current change (%, negative = inhibition) at 10uM” value was -20%.
The value for `COCCCNC(=O)CC(=O)N/N=C\c1ccc(SC)cc1` was 8.87%; that for `CN(C)C=NC(=O)/C(C#N)=C/c1ccccc1` was 13.2%.
The result for `O=C1c2ccccc2C(Nc2ccc(Cl)cn2)N1c1cccnc1` (stereo not drawn) reads -16.5%; that for `Cc1cc(C)n(CC(=O)NNC(=O)C2CC(=O)N(Cc3ccccc3Cl)C2)n1` (stereo not drawn), 1.16%.
Regarding `COC(=O)Cc1cc(=O)[nH]c(/N=C(\N)Nc2ccccc2C)n1`, the “hERG current change (%, negative = inhibition) at 10uM” value was -4.72%.
For the compound `CCc1ccc(-c2cc(C(=O)Nn3cnnc3)c3ccccc3n2)cc1`, the “hERG current change (%, negative = inhibition) at 10uM” value was found to be 10.7%.
For `COc1ccc(/C=N/Nc2ccccn2)cc1OC`, the “hERG current change (%, negative = inhibition) at 10uM” value was 7.51%.
Turning to `Cc1ccc(NC(=O)CNCC2CCCCC2)cc1S(=O)(=O)N(C)C`, the “hERG current change (%, negative = inhibition) at 10uM” value is -9.36%.
In the case of `C=CCn1c(N)cc(=O)nc1SCC(=O)Nc1cccc2ccccc12`, the “hERG current change (%, negative = inhibition) at 10uM” value turned out to be 15%.
On to `CCC(C)NC(=O)CS(=O)Cc1nc(-c2cccc(OC)c2)oc1C` (stereo not drawn), for which the “hERG current change (%, negative = inhibition) at 10uM” value is 2.84%.
The value for `Cc1cc(C)c2nc(NCCCNC(=S)NCCCN(C)C)c(C#N)cc2c1` was 19.4%; that for `CCCN(CCC)CCCNC(=O)c1cn(CC)c2ccc(S(=O)(=O)N3CCc4ccccc4C3)cc2c1=O` was -69.9%; that for `C/C(CC(=O)NCc1ccccc1)=N\NC(N)=S` was 15.9%.
Consider `COCCN(C(=O)CSc1ncc(C(F)(F)F)cc1Cl)c1c(N)n(Cc2ccccc2)c(=O)[nH]c1=O`, for which the “hERG current change (%, negative = inhibition) at 10uM” value was -5.25%.
`O=[n+]1c2c(n([O-])c3cc(F)c(F)cc31)CCCC2`: the “hERG current change (%, negative = inhibition) at 10uM” value was found to be 10.2%.
As to `COc1cc(/C(C)=N/Nc2ccc(C(=O)O)cc2)cc(OC)c1OC`, the “hERG current change (%, negative = inhibition) at 10uM” value is given as -5.38%.
Consider `COc1ccc(OC)c(C(=O)Cn2c3[n+](c4ccc(C(F)(F)F)cc42)CCCCC3)c1.[Cl-]`, for which the “hERG current change (%, negative = inhibition) at 10uM” value is -8.32%.
With `COc1ccc(CNC(=O)C2(CC3CC(c4ccccc4)=NO3)CCN(C(=O)c3cccc(O)c3)CC2)cc1` (stereo not drawn), the “hERG current change (%, negative = inhibition) at 10uM” value is -68.2%.
With `O=C1Nc2ccccc2C1=Nc1ccc(Cl)cc1`, the “hERG current change (%, negative = inhibition) at 10uM” value stood at 19.9%.
The value for `Cc1ccccc1C(=O)NCCN=C1NS(=O)(=O)c2ccccc21` was 10.8%; that for `CCCCNC(=O)CNC(=O)c1cccs1` was 11.8%; that for `COCCN(C(=O)c1ccc(-c2ccc(Cl)cc2)o1)c1c(N)n(CC(C)C)c(=O)[nH]c1=O` was -6.26%.
As to `Cc1ccc(S(=O)(=O)Nc2c(C)nn(C)c2C)c(C)c1`, the “hERG current change (%, negative = inhibition) at 10uM” value is reported as -23%.
With `COc1cc(OC)cc(Oc2ccc(S(=O)(=O)N3CCCCC3)cc2[N+](=O)[O-])c1`, the “hERG current change (%, negative = inhibition) at 10uM” value is recorded as 1.5%.
The value for `COC(=O)C1N[C@@H]([C@@H](NC(=O)COc2ccccc2)C(=O)Nc2ccc(OC)cc2)SC1(C)C` (stereo partly drawn) was -27.7%; that for `Cc1nnc(SCC2=C(C(=O)[O-])N3C(=O)C(NC(=O)Cc4ccccc4)C3SC2)s1.[Na+]` (stereo not drawn) was 9.74%; that for `COc1ccc(CC(=O)N/N=C/c2cccs2)cc1OC` was 12%.
The result for `COc1ccc(-c2noc(CCC(=O)NCc3cccnc3)n2)cc1OC` reads 0.925%; that for `CCOCCn1c(=NC(=O)c2ccc(S(=O)(=O)N3CCOCC3)cc2)sc2cc(S(N)(=O)=O)ccc21`, -1.42%.
For the compound `O=C(Nc1nc2ccccc2[nH]1)c1cccc(S(=O)(=O)N2CCOCC2)c1`, the “hERG current change (%, negative = inhibition) at 10uM” value is listed as -8.91%.
The value for `CN(C)c1oc(-c2ccccc2Cl)nc1C#N` was -3.24%; that for `O=C(CSc1ccccc1F)NC(=O)NCc1ccco1` was -7.03%; that for `CC(=O)NC(C)C(=O)OCC(=O)c1ccc(-c2ccccc2)cc1` (stereo not drawn) was 32.4%.
The result for `CC(=O)Nc1cccc(OC(=O)N2CCOCC2)c1` reads 18.4%; that for `Cc1ccc(S(=O)(=O)N2CCN(C(=O)c3ccc(N4CCCC4)c([N+](=O)[O-])c3)CC2)cc1`, -18.1%; that for `Cn1ncc(Cl)c1C(=O)Nc1ccc(CN2CCCCC2)cc1`, 11%.

The record behind these values is paper PMC4336329 (PLoS ONE, 2015).
